# Measured values from the supplement of paper PMC7826260.
# The list shows a part of the results. Each Rep nickase domain was tested in vitro on the same pool of single strands at 3 µM enzyme and 37 °C for 1 h; the strands have 90 letters, of which the middle is given. The score is log2 (uncut reads / reads without enzyme); uncut sequences lie near 0, cut ones below; no hit call is given. Counts are relative to all reads; uncut strands gain when others are lost, and binding without cutting may add a little.
# Assays:
# Test in all cases: uncleaved DNA left, log2 of reads against the no-enzyme library (log2 ratio); higher = less cleavage (more negative = more Rep cleavage of the k-mer); sequences stand for … in CTCGTCCG…ACCGGAGA
# [1] = system: T1, Rep nickase domain of Muscovy duck circovirus
# T1 sequence (residues 1-111, tag not shown): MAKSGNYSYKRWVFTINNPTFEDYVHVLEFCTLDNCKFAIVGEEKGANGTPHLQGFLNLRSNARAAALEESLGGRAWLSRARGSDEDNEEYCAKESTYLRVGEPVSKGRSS
# Description: (§1)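 A pool of 90-nt single-stranded DNAs with seven random bases just before the constant AC of the nick site (name = the seven bases) was cut by 3 µM recombinant His6-SUMO-tagged Rep nickase domain (300 nM DNA, 50 mM HEPES pH 8.0, 50 mM NaCl, 1 mM MnCl2, 1 h, 37 °C, three replicates). Uncut DNA was amplified and sequenced.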
# [2] = system: T2, Rep nickase domain of banana bunchy top virus
# T2 sequence (residues 1-94, tag not shown): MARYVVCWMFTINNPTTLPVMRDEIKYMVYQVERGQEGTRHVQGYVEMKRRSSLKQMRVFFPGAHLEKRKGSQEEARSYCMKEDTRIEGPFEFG
# Description: as §1
# [3] = system: T3, Rep nickase domain of cabbage leaf curl virus
# T3 sequence (residues 1-116, tag not shown): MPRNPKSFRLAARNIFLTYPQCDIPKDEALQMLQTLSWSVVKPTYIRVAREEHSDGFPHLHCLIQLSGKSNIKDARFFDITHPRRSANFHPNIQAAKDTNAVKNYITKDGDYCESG
# Description: as §1
# [4] = system: T4, Rep nickase domain of chickpea chlorotic dwarf virus
# T4 sequence (residues 1-124, tag not shown): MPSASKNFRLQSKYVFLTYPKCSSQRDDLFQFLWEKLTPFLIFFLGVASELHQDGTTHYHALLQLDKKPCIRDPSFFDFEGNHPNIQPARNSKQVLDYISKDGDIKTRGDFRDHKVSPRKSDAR
# Description: as §1
# [5] = system: T5, Rep nickase domain of faba bean necrotic yellows virus
# T5 sequence (residues 1-98, tag not shown): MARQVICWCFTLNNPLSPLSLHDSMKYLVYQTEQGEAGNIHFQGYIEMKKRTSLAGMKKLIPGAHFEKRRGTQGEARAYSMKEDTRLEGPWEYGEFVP
# Description: as §1
# [6] = system: T6, Rep nickase domain of maize striate mosaic virus
# T6 sequence (residues 1-117, tag not shown): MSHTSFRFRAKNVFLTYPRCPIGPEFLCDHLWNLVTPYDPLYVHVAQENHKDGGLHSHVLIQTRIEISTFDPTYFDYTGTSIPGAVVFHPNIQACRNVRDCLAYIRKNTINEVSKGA
# Description: as §1
# [7] = system: T7, Rep nickase domain of porcine circovirus 2
# T7 sequence (residues 2-116, tag not shown): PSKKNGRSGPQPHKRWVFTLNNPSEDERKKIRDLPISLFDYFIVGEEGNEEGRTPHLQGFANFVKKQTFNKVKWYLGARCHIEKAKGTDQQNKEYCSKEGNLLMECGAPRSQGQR
# Description: as §1
# [8] = system: T8, Rep nickase domain of tomato yellow leaf curl virus
# T8 sequence (residues 1-136, tag not shown): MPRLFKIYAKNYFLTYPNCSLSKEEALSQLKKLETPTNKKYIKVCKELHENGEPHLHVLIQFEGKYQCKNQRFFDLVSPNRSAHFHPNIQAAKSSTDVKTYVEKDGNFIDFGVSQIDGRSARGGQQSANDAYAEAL
# Description: as §1
# [9] = system: T9, Rep nickase domain of wheat dwarf virus
# T9 sequence (residues 1-137, tag not shown): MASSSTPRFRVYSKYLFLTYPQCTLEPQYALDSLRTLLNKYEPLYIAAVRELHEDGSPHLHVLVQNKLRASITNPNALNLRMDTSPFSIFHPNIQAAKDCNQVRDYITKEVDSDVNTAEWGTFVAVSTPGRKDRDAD
# Description: as §1
Sequence,uncleaved DNA left (log2) [1],uncleaved DNA left (log2) [2],uncleaved DNA left (log2) [3],uncleaved DNA left (log2) [4],uncleaved DNA left (log2) [5],uncleaved DNA left (log2) [6],uncleaved DNA left (log2) [7],uncleaved DNA left (log2) [8],uncleaved DNA left (log2) [9]
GCGTTTC,0.015,0.0799,0.289,0.369,-0.0502,0.107,0.07,0.0593,0.0881
TTGGCAT,0.15,0.137,0.584,1.49,0.0548,1.71,0.237,0.138,0.177
AGATCGG,0.0975,0.198,0.503,1.34,-0.0842,1.59,0.201,0.00787,0.119
CGGTGTT,-2.32,-0.512,-0.361,-1.2,-0.837,0.319,-2.91,0.0148,-0.488
TGCGTCG,0.0696,-0.123,-0.382,-0.529,-0.0696,-0.759,0.139,-0.145,-0.0714
GTTTAAT,-0.269,0.00937,0.285,0.734,-0.127,1.65,-0.724,-0.0397,-0.0888
AGTAAAT,-0.0187,-0.0448,0.0386,0.0938,-0.0843,0.097,-3.4,0.0687,0.0816
ATGTGAC,0.0692,0.0827,0.225,0.435,0.038,0.0802,0.197,0.176,0.00722
GGGTATG,0.0703,0.0405,0.784,1.74,-0.062,2.06,0.138,-0.0116,0.0836
TATTAGT,-3.96,-3.68,-2.34,-2.66,-0.506,-1.19,-3.59,0.109,-0.763
TAGCACG,0.0746,0.0746,-0.631,-0.494,0.136,-0.989,0.179,-0.0279,-0.098
ACGTGGG,-0.0898,-0.107,-0.544,-0.502,0.00766,-0.865,0.148,-0.0574,-0.0345
CAAAACA,-0.0196,0.0663,-0.541,-2.35,0.11,-0.926,0.0509,-0.0899,-0.015
GTGTTCG,-0.148,-0.187,-0.511,-0.446,-0.031,-0.696,-0.0388,-0.174,-0.258
ATAGAAT,0.129,-0.0136,0.379,1.01,0.166,1.2,0.14,0.0542,0.0749
CAACCCT,-0.19,-0.0591,-1.17,-2.75,0.156,-0.599,-1.63,0.0622,-0.192
GGGGTAG,-0.0209,-0.00512,0.77,1.76,-0.0883,2.05,0.207,-0.0492,0.108
CACATAC,-0.00964,-0.114,-0.303,-0.778,-0.158,-1.04,0.00696,-0.161,-0.0648
TGCCCAG,-0.0513,-0.00318,-0.494,-0.431,0.00785,-0.967,0.0688,0.0886,0.0241
ATCAATA,0.0905,0.183,0.00409,-1.18,0.118,-0.417,0.0255,0.261,0.205

Sequence,uncleaved DNA left (log2) [1],uncleaved DNA left (log2) [2],uncleaved DNA left (log2) [3],uncleaved DNA left (log2) [4],uncleaved DNA left (log2) [5],uncleaved DNA left (log2) [6],uncleaved DNA left (log2) [7],uncleaved DNA left (log2) [8],uncleaved DNA left (log2) [9]
CGCAGTT,-0.152,-0.0428,-0.138,-1.17,-0.0335,-0.347,-0.225,-0.102,-0.101
TTACGGA,0.0738,-0.0607,0.139,0.144,0.0545,-0.00918,0.0653,0.0244,0.0471
CTTAGCA,-0.0305,-0.0608,0.0316,-0.115,0.096,-0.869,-0.167,0.017,0.0697
TGGTGCA,-0.0566,-0.0769,0.0615,-0.0734,-0.103,-0.272,-0.0947,0.0159,-0.0465
AATTTAA,-0.615,-0.187,-0.126,-0.696,-0.0548,-0.794,-0.864,-0.124,-0.0679
ATGTGGC,-0.0609,0.0191,-0.265,-0.471,-0.0109,-1.01,0.177,0.00597,-0.079
TGGGTGC,0.0695,0.0916,0.332,0.562,-0.0513,0.359,0.24,0.0804,0.0183
TTGCTCA,0.0245,-0.101,-0.459,-0.909,-0.0871,-0.973,-0.0016,-0.0483,-0.0409
ATGGACA,0.00168,0.0147,0.638,1.5,-0.124,1.64,0.13,0.113,0.23
GACCAGT,0.0215,0.0585,0.114,-0.0611,0.0127,0.115,-0.122,0.102,-0.00817
GGCAAGG,0.181,0.134,0.466,1.02,0.0286,1.56,0.184,0.0862,0.184
GCCTATT,-2.75,-0.581,-0.458,-1.8,-0.251,0.0537,-2.56,-0.122,-0.475
GTGTTAG,0.178,0.155,-0.114,0.097,-0.0232,-0.508,0.0882,0.127,0.049
TATAGGC,0.0393,-0.0959,0.288,0.495,0.0661,-0.038,0.0549,-0.0528,-0.0351
CGCCCAG,-0.0876,-0.128,-0.647,-0.335,-0.201,-0.734,-0.00573,-0.0258,-0.178
TTACTCC,-0.112,-0.112,0.119,-1.03,-0.0367,0.493,-0.0736,-0.104,-0.0365
CCCTCGA,0.0383,-0.00936,-0.494,-0.82,0.0521,-1.13,-0.0865,-0.127,-0.128
CTCGGCA,0.0405,0.0792,-0.0295,-0.397,0.145,-0.728,-0.063,0.216,0.00421
TAACCTC,-0.122,0.056,-1.5,-2.74,-0.0263,0.15,-0.41,-0.0194,-0.453
GTACACC,0.0185,0.105,0.333,0.785,0.00431,1.49,-0.0154,0.0747,0.144

Sequence,uncleaved DNA left (log2) [1],uncleaved DNA left (log2) [2],uncleaved DNA left (log2) [3],uncleaved DNA left (log2) [4],uncleaved DNA left (log2) [5],uncleaved DNA left (log2) [6],uncleaved DNA left (log2) [7],uncleaved DNA left (log2) [8],uncleaved DNA left (log2) [9]
TGCCATA,-0.0638,0.181,0.12,-0.35,0.0914,-0.228,0.176,0.305,0.189
TTGAATC,0.108,0.0437,0.161,0.138,0.0111,-0.535,-0.0535,0.0408,0.0474
GCCACGG,0.0315,0.00532,0.559,1.46,-0.0346,1.92,0.056,-0.191,-0.0394
TATTTGA,-1.68,-0.0166,-0.00395,-0.499,0.0982,-0.937,-0.431,0.113,0.0323
CTGAATG,0.167,0.184,0.116,0.467,0.21,0.297,0.3,0.124,0.246
CCGGGCC,0.0318,0.115,0.324,0.682,-0.0134,1.24,0.156,0.0464,0.118
CACATTA,-0.243,0.097,-0.378,-1.93,-0.00189,-0.842,-0.0715,-0.0604,-0.104
CGCGAGT,0.0597,-0.111,-0.0695,0.0636,-0.0453,0.021,-0.0634,-0.0587,-0.153
GTTGAGC,-0.048,-0.0157,0.0164,0.365,-0.107,-0.23,-0.0746,0.0703,0.00609
TGACGGT,0.0276,0.0689,0.211,0.485,-0.13,1.3,-0.259,0.0164,-0.0491
GGTGCTG,-0.014,-0.00672,0.0693,0.769,-0.0768,1.43,0.0749,-0.154,-0.0444
GCCAGAT,-0.0391,0.0211,0.244,0.832,-0.183,0.941,0.124,-0.136,0.0436
TGTCCAC,0.0172,0.0198,0.266,0.728,-0.213,1.24,-0.0896,0.0508,0.0307
CCCGTGG,-0.105,0.0459,0.0155,0.499,-0.236,0.337,0.0231,-0.0688,-0.0359
AGATGCT,-1.19,-0.0751,-0.789,-1.45,-0.0566,-1.02,-3.32,-0.0508,-0.307
CAACGAG,0.00605,0.0306,0.0805,0.204,0.02,-0.679,0.144,0.0893,0.115
TAACCGG,0.0453,0.107,0.488,1.36,0.0588,1.79,0.101,0.0723,0.149
AATGGTT,0.096,0.0575,0.464,1.78,0.00543,1.96,-0.00585,-0.0886,0.0832
ATCTTGG,0.068,-0.0376,-0.318,-0.251,0.0141,-1.08,0.107,0.0418,-0.0209
CACTGTA,-0.0392,-0.257,0.0674,-0.391,0.0198,0.395,-2.83,0.21,0.0834
